Experimental data from PubChem BioAssay AID1347165 (National Center for Advancing Translational Sciences (NCATS), 2019).
Out of some 220,000 compounds screened, about 5,700 (2.6%) were called active. The inconclusive results got no clear call from the source; some entries with a clear call stand among them for comparison. The call rests on the fitted dose curve; in most records, active means well fitted inhibition curve with a large enough effect; inconclusive means small, poorly fitted or top-dose-only effect; inactive means no such curve, though single readings can be large or run the other way. Potencies of inconclusive entries are doubtful fits and often do not repeat.
Further: nearly all actives have a fitted effect of over 70% in size.
Potency means the concentration at half of the fitted maximal effect; tags describe the fitted curve by direction and shape.
Wherever activity change, negative = inhibition is given: 0% is about no effect.

What follows are compounds tested against Lysine-specific demethylase 5B (Homo sapiens) (UniProt Q9UGL1) (assay: Primary screen for KDM5B Histone Demethylases FDH-coupled qHTS). Details: FDH-coupled NADH fluorescence (FDH is formaldehyde dehydrogenase); activity change, negative = inhibition: at 57.7 µM (top of the series) unless noted.
Sequence of UniProt Q9UGL1 (Q9UGL1 whole entry, looked up, the tested form may be a part): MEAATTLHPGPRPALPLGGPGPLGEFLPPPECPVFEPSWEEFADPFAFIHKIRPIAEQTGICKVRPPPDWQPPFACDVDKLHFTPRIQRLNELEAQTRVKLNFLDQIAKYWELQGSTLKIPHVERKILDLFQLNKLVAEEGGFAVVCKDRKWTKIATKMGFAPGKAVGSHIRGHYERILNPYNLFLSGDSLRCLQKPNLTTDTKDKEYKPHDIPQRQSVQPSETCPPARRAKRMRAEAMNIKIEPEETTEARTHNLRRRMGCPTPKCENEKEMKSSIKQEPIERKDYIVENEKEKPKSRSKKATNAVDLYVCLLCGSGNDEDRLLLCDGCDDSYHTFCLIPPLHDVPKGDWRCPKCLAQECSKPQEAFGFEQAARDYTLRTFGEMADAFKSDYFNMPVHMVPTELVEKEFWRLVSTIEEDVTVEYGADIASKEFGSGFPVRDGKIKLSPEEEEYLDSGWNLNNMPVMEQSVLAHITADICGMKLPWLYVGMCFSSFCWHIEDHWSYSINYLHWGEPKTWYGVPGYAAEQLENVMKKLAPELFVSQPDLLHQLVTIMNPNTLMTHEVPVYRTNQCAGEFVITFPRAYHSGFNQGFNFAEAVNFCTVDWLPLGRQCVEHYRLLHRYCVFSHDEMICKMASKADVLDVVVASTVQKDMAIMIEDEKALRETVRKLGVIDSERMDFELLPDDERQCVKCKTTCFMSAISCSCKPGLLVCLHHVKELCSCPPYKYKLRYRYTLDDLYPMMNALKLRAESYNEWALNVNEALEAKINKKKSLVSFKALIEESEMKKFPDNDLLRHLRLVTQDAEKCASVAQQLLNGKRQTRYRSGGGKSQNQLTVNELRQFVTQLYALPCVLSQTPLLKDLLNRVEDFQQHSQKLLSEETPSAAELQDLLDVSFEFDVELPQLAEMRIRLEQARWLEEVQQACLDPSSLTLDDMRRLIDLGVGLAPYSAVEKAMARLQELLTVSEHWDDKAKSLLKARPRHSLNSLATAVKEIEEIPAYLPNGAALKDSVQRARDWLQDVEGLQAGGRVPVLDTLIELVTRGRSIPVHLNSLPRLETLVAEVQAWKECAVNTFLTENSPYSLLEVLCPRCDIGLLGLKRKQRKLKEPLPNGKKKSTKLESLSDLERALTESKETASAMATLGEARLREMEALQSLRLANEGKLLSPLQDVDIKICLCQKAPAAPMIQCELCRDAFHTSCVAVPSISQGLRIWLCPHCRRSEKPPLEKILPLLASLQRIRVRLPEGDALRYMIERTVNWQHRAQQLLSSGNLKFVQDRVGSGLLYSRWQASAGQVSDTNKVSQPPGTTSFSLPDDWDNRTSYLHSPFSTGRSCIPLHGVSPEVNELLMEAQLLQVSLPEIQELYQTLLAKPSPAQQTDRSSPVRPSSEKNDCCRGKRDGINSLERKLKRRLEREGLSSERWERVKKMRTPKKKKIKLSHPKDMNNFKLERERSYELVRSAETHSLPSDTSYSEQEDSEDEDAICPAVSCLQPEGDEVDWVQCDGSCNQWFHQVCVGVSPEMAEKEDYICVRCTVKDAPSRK
In short: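 Inhibition is measured as reduced NADH fluorescence generation from FDH coupling to formaldehyde release. Truncated KDM5BΔAP at 200 nM final acts on H3K4me3 peptide (12.5 µM in substrate mix) in pH 7.5 HEPES buffer with Tween-20, 30 min, room temperature.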
For `CCN(C(=O)Cn1c(=O)n(-c2ccccc2)c(=O)c2ccc(C(=O)NCc3ccc4c(c3)OCO4)cc21)c1cccc(C)c1`, the Potency was inconclusive: 22.4 µM [inhibitor, single point].
In the case of `Cc1c(Cl)cccc1NS(=O)(=O)c1ccc(-c2cnc(C3CC3)o2)cc1`, the Potency is reported as inconclusive: 15.8 µM [inhibitor, partial curve, poor fit].
In the case of `CCc1nccn1CCCNc1nc(CCN)nc2ccccc12`, the Potency is reported as inconclusive: 15.8 µM [inhibitor, partial curve].
In the case of `CCCCN(C)Cc1ccccc1OC`, the Potency is reported as inconclusive: 39.8 µM [inhibitor, single point].
For `CCC(c1cccs1)N1C(=O)[C@H]2CN(S(=O)(=O)c3ccc(F)cc3)C[C@H]2C1=O` (stereo not given in full), the “activity change, negative = inhibition” value was inactive: 13.8%.
In the case of `O=C(COC(=O)C1(c2ccccc2F)CCCC1)Nc1ccc(C(F)(F)F)cc1[N+](=O)[O-]`, the “activity change, negative = inhibition” value is reported as inactive: -10.7%.
`OC1(CN2CCCCC2)CCN(Cc2ccc(Cl)cc2)C1` (stereo not given) was tested, and the Potency was inconclusive: 8.91 µM [inhibitor, partial curve].
`O=C(Nc1cccc(F)c1)N1CCC2(CC1)CC(N1CCOCC1)CCO2` (stereo not given) was tested, and the “activity change, negative = inhibition” value was inactive: 4.57%.
In the case of `O=C(NCc1ccncc1)c1cc(C2CC2)nc2onc(C3CCCN3)c12` (stereo not given), the Potency is reported as active: 79.4 µM.
In the case of `COC(=O)[C@@H]1Cc2c([nH]c3ccccc23)[C@H]2C[C@@H](NCCN3CCOCC3)C[C@@H](c3ccc(F)c(F)c3)N21`, the Potency is reported as inconclusive: 15.8 µM [inhibitor, partial curve, poor fit].
With `O=C(Nc1ccc(F)c(Cl)c1)c1cc2n(n1)CC(c1ccc3c(c1)OCO3)OC2` (stereo not given) the Potency was active: 31.6 µM.
With `Cc1ccc(-n2cc(C(=O)Oc3ccc(F)cc3)c3ccccc3c2=O)cc1` the Potency was inconclusive: 25.1 µM [inhibitor, single point].
With `COC(=O)c1ccc(CNC(=O)Cn2c(Cl)nc3c2c(=O)n(C)c(=O)n3C)cc1` the “activity change, negative = inhibition” value was inactive: -4.56%.
`CSc1ccccc1NC(=O)/C(=C/c1ccco1)c1ccccc1` was tested, and the “activity change, negative = inhibition” value was inactive: -21.5%.
In the case of `COc1ccc(C(=O)N2CCN(c3nnc4cccc(C)n34)CC2)cc1F`, the Potency is reported as active: 28.2 µM.
`CC1(C)CC(=O)C2=C(C1)OC(N)=C(C#N)C2c1ccco1` (stereo not given) was tested, and the “activity change, negative = inhibition” value was inactive: -14.3%.
In the case of `O=C(CSc1oc(-c2ccccc2)nc1S(=O)(=O)c1ccc(Cl)cc1)c1ccccc1`, the Potency is reported as inconclusive: 17.8 µM [inhibitor, partial curve, poor fit].
`Cc1ccc(-n2ncc3c(NCCCN4CCOCC4)ncnc32)cc1Cl` was tested, and the Potency was inconclusive: 25.1 µM [inhibitor, partial curve, poor fit].
In the case of `CCNc1ncc(C(=O)NC2CC(c3nnc(CO)n3CC)C2)cn1` (stereo not given), the Potency is reported as active: 25.1 µM.
In the case of `COc1ccc(NC(=O)C(=O)c2c(C)n(C)c3ccccc23)cc1OC`, the “activity change, negative = inhibition” value is reported as inactive: -1.35%.
With `ClCC1=Nc2ccccc2Cc2ccccc21` the Potency was inconclusive: 15.8 µM [inhibitor, partial curve, poor fit].
For `O=c1ncn(Cc2ccccc2)c2ccc(-c3ccc(F)cc3)nc12`, the Potency was active: 35.5 µM.
With `CCCCN1CC(c2nc3ccccc3n2CCCCOc2ccc(C)cc2C)CC1=O` (stereo not given) the Potency was inconclusive: 15.8 µM [inhibitor, partial curve, poor fit].
With `FC(F)(F)c1cnc(SCc2cn3ccsc3n2)c(Cl)c1` the “activity change, negative = inhibition” value was inactive: 11.1%.
In the case of `Clc1ccccc1-c1csc(NC2CC2)n1`, the “activity change, negative = inhibition” value is reported as inactive: 2.95%.
With `Cc1nnc(SCC(=O)c2ccc(Cl)cc2)n1Cc1ccccc1` the “activity change, negative = inhibition” value was inactive: 8.46%.
In the case of `CCCC(=O)Nc1ccc(-c2nc3cc(OC)ccc3o2)cc1`, the “activity change, negative = inhibition” value is reported as inactive: 299%.
With `COC(=O)c1ccc(C(=O)OC)c(=O)[nH]1` the Potency was inconclusive: 31.6 µM [inhibitor, partial curve, poor fit].
In the case of `O=C(O)C(c1c[nH]c2ccccc12)N1CCN(Cc2cccc(Cl)c2)CC1` (stereo not given), the “activity change, negative = inhibition” value is reported as inactive: 13.8%.
For `CN1c2cc(C(=O)Nc3ccc(OC(F)(F)F)cc3)ccc2C(=O)N2CCCCC21` (stereo not given), the Potency was inconclusive: 25.1 µM [inhibitor, partial curve, poor fit].
With `COc1ccccc1NC(=O)C(=O)c1cc(C)n(-c2ccccc2F)c1C` the Potency was inconclusive: 35.5 µM [inhibitor, single point].
With `Cc1ccc(-c2nccc3c(=O)cc(-c4cn[nH]c4)oc23)cc1` the Potency was inconclusive: 3.16 µM [inhibitor, partial curve, poor fit].
`CCOc1ccccc1Cn1c(SCC(=O)NC(C)(C)C)nc2c(sc3ncccc32)c1=O` was tested, and the “activity change, negative = inhibition” value was inactive: 21.7%.
With `COc1cc2[nH]c(=O)n(Cc3ccc(C(=O)NCc4ccccc4)cc3)c(=O)c2cc1OC` the Potency was inconclusive: 25.1 µM [inhibitor, partial curve, poor fit].
`Cc1nc(N2CCCC2)c2c(C(=O)Nc3cccc(Cl)c3C)c(C)oc2n1` was tested, and the Potency was inconclusive: 1 µM [inhibitor, full curve, poor fit].
For `O=S(=O)(c1cccnc1)N1CCC(OC2CCN(Cc3cccnc3)CC2)CC1`, the “activity change, negative = inhibition” value was inactive: 26.3%.
With `Cc1nc(-c2ccc(F)cc2)n(Cc2nc(-c3ccc(Cl)cc3)oc2C)c(=O)c1CCO` the Potency was inconclusive: 11.2 µM [inhibitor, partial curve].
`COc1ccc(Cl)cc1NC(=O)Cn1ncc2ccc(OC)c(OC)c2c1=O` was tested, and the “activity change, negative = inhibition” value was inactive: -14.4%.
`O=C(c1cnc2c(c1)N([S+](=O)([O-])c1cccnc1)CCC2)N1CCC(c2ccccc2)CC1` was tested, and the Potency was inconclusive: 20 µM [inhibitor, single point].
With `Cc1ccc(CNC(=O)c2ccc(-c3nnc4ccc(NC(=O)C5CCC5)cn34)cc2)cc1` the Potency was inconclusive: 25.1 µM [inhibitor, partial curve, poor fit].
For `Cc1nonc1CN1CCN(C(C(=O)O)c2c[nH]c3ccccc23)CC1` (stereo not given), the “activity change, negative = inhibition” value was inactive: 12.9%.
With `COc1cc(Cl)c(C)cc1NC(=O)c1cc2ccc3cccnc3c2[nH]1` the Potency was inconclusive: 31.6 µM [inhibitor, partial curve, poor fit].
With `COc1ccc(/C=N/NC(=O)CNC(=O)/C=C/c2ccccc2OC)cc1` the Potency was inconclusive: 39.8 µM [inhibitor, partial curve, poor fit].
With `Cc1ccc(F)c(NC(=O)c2cc3c(N4CCSCC4)nc(C)cn3n2)c1` the Potency was active: 31.6 µM.
`CC1(C(=O)NCCc2ccccn2)CCc2cnc(NCc3ccccc3)nc21` (stereo not given) was tested, and the Potency was active: 31.6 µM.
